Data: PubChem BioAssay AID651820 (National Center for Advancing Translational Sciences (NCATS), 2012)
The campaign covered roughly 340,000 compounds. About 12,000 (3.5%) were called active. Inconclusive means that the source gave no clear call. Such entries were picked first, then a sample of the others. Calls come from the whole dose curve; as a rule, active = well fitted inhibition curve with a large enough effect; inconclusive = small, poorly fitted or top-dose-only effect, or another doubt; inactive = no such curve, though single readings can be large or run the other way. No potency is given beside an inconclusive call; the fits are too rough.
Potency is the fitted concentration of half-maximal effect; tags give direction and shape of the fitted curve.

Assay: qHTS Assay for Inhibitors of Hepatitis C Virus (HCV)
Conditions: Huh7.5.1 HCVcc-Cre (HCVcc is cell-culture hepatitis C virus) infection, luciferase reporter, 44 h; series mostly up to 41.8 µM
How it was run: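 Cells seeded at 1,000/well and cultured 4 h, then compounds added followed by HCVcc-Cre virus (~0.5 moi). After 44 h further culture, luciferase substrate was added, plates held 15 min at room temperature, and luminescence read for 15 sec.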
In the case of Cc1ccc(NC(=S)NCCc2ccc(Cl)cc2)c(C)c1, the Potency is reported as inconclusive [inhibitor, single point].
For COc1ccc(-c2cn(-c3ccc(C)cc3C)c(=O)[nH]2)cc1OC, the Potency was active: 11.2 µM.
In the case of O=C(c1ccccc1)N(Cc1nc2ccccc2c(=O)[nH]1)C1CCCCC1, the Potency is reported as “inactive”.
In the case of O=C(NCc1cccc(Cl)c1)c1cccc(C(F)(F)F)c1, the Potency is reported as inconclusive [inhibitor, single point].
With CSC1=C(C#N)C(c2ccccc2Cl)C2=C(N1)c1ccccc1C2=O (stereo unspecified) the Potency was “inactive”.
For CCOC(=O)C1(C(C)(C)CC)CC(CSc2nc3ccccc3[nH]2)OC1=O (stereo unspecified), the Potency was inconclusive [inhibitor, single point].
For CCN(CC)CCNc1ncnc2c1sc1nc(N3CCOCC3)c3c(c12)CCCC3, the Potency was inconclusive [inhibitor, partial curve].
In the case of Cc1ccc(NC(=O)Cc2n[nH]c(=S)n2C)cc1, the Potency is reported as “inactive”.
For O=C(NNC(=O)C1C2CCCCC21)c1coc(=O)c(Br)c1 (stereo unspecified), the Potency was “inactive”.
For Cc1ccccc1NS(=O)(=O)c1cc(C(=O)Nc2cccc([N+](=O)[O-])c2)ccc1C, the Potency was inconclusive [inhibitor, single point].
In the case of Cc1ccc2cc3c(NC(=O)C4CCCO4)nn(CC(C)C)c3nc2c1 (stereo unspecified), the Potency is reported as inconclusive [inhibitor, partial curve].
In the case of CCN(C(=O)CN1C(=O)S/C(=C\c2ccccc2OC)C1=O)C1CCS(=O)(=O)C1 (stereo unspecified), the Potency is reported as “inactive”.
With CCCCn1c(N)c(N(CCC(C)C)C(=O)COC(=O)c2ccc(CC)cc2)c(=O)[nH]c1=O the Potency was inconclusive [inhibitor, single point].
In the case of Cn1c2ccccc2c(=O)c2ccc(NCc3ccc4c(c3)OCO4)cc21, the Potency is reported as inconclusive [inhibitor, partial curve].
For CC(C)(C)c1ccc(C(=O)NC(=S)Nc2nc3c(s2)CCCC3)cc1, the Potency was inconclusive [inhibitor, single point].
For CCN(CC)c1ccc2c(c1)OC(N)=C(C#N)C2c1cccnc1 (stereo unspecified), the Potency was inconclusive [inhibitor, full curve].
With Cc1ncc(CO)c(/C=N/NC(=S)Nc2ccc(F)cc2)c1O the Potency was “inactive”.
For N#Cc1ccc(C(=O)Nc2nc(-c3cccs3)c(C(=O)C(F)(F)F)s2)cc1, the Potency was active: 11.2 µM.
In the case of CCCCn1c(N)c(N(CC)C(=O)c2ccc([N+](=O)[O-])c(C)c2)c(=O)[nH]c1=O, the Potency is reported as “inactive”.
With CN(C1CCCCC1)S(=O)(=O)c1ccc(NC(=S)NC(=O)c2cccs2)cc1 the Potency was inconclusive [inhibitor, single point].
For Cc1c(NCc2ccncc2)cccc1C(=O)O, the Potency was “inactive”.
In the case of O=C(NNC1=Nc2ccccc2SC1)c1ccc(Cl)cc1, the Potency is reported as inconclusive [inhibitor, partial curve].
For COc1ccc(OC)c(-c2nc(CN(C)C(C)c3ccncn3)c(C)o2)c1 (stereo unspecified), the Potency was “inactive”.
In the case of O=C(CN1CCN(S(=O)(=O)N2CCOCC2)CC1)Nc1cc(Cl)ccc1Cl, the Potency is reported as inconclusive [inhibitor, single point].
With CC1(C)Oc2ccc3ccc(=O)oc3c2/C(=C/Nc2ccc(O)cc2)C1=O the Potency was inconclusive [inhibitor, single point].
In the case of C=CCC(=O)N(CC)CC1CCCN(CCc2cccc(F)c2)C1 (stereo unspecified), the Potency is reported as “inactive”.
With COc1ccc(C(=O)NNC(=O)c2ccc3ccccc3n2)cc1 the Potency was inconclusive [inhibitor, single point].
With COC(=O)COc1ccc(/C=N/NC(=O)CN(c2ccccc2OC)S(=O)(=O)c2ccccc2)cc1 the Potency was inconclusive [inhibitor, single point].
In the case of Cn1cc(CN2CCCC(C(=O)c3ccc(-c4ccccc4)cc3)C2)cn1 (stereo unspecified), the Potency is reported as active: 14.1 µM.
In the case of C/C(=C\C(=S)Nc1ccccc1)Nc1cccc2ccccc12, the Potency is reported as inconclusive [inhibitor, single point].
In the case of Cc1cc(N2CCC(C)CC2)nc2cccc(O)c12, the Potency is reported as inconclusive [inhibitor, partial curve, poor fit].
With Cc1cc(C)cc(N(CC(=O)Nc2ccc(C(F)(F)F)cc2)S(=O)(=O)c2c(C)[nH]c(=O)[nH]c2=O)c1 the Potency was inconclusive [inhibitor, single point].
For CCN(Cc1ccccc1)C(=O)CCNS(=O)(=O)c1cc(Br)cnc1N, the Potency was “inactive”.
With COc1ccc(-c2csc(C3=C(O)CN(C(C)C)C3=N)n2)cc1OC the Potency was inconclusive [inhibitor, full curve].
For CCc1c(C)nc2cc(-c3cc(OC)cc(OC)c3)nn2c1N1CCN(CCN2CCOCC2)CC1, the Potency was inconclusive [inhibitor, partial curve].
For COCCNC(=O)/C(C#N)=C/c1nc(N(C)C)n(-c2ccc(F)cc2)c1Cl, the Potency was inconclusive [inhibitor, full curve, poor fit].
For CC(C)(C)OC(=O)C[C@H]1C/C=C\C[C@@H](CC(=O)N[C@H](CO)Cc2ccccc2)C(=O)NC[C@@H](c2ccccc2)OC1=O, the Potency was inconclusive [inhibitor, single point].
For COc1ccc(C2SCC(=O)Nc3c2c(C)nn3-c2ccccc2)cc1 (stereo unspecified), the Potency was “inactive”.
For COc1cc(CNCc2ccccn2)ccc1OCC(N)=O, the Potency was “inactive”.
In the case of COc1ccccc1NC(=O)c1ccc(-c2ccc(Br)cc2)o1, the Potency is reported as active: 8.91 µM.
In the case of COc1ccccc1N1CCN(C(c2ccccc2)c2nnnn2CCc2ccccc2)CC1 (stereo unspecified), the Potency is reported as inconclusive [inhibitor, partial curve].
For COc1ccc(N2CCN(C3CCCN(S(=O)(=O)c4ccccc4)C3)CC2)cc1 (stereo unspecified), the Potency was “inactive”.
For CCOC(=O)C1(CC2CCCCO2)CCN(Cc2ccc(OC)cc2F)CC1 (stereo unspecified), the Potency was inconclusive [inhibitor, single point].
For CCCCNc1c(-c2ccc(OC)c(SC3CCCCC3)c2)nc2cnccn12, the Potency was inconclusive [inhibitor, partial curve].
For COc1ccc(OC)c(NC(=O)COC(=O)Cc2ccc(Br)cc2)c1, the Potency was inconclusive [inhibitor, single point].
For CCOC(=O)C1=CN(CC2CCCO2)C=C(C(=O)OCC)C1c1ccccc1C(F)(F)F (stereo unspecified), the Potency was inconclusive [inhibitor, partial curve, poor fit].
In the case of Cc1cc(C)cc(NC(=O)COc2ccc(C(=S)N3CCOCC3)cc2)c1, the Potency is reported as inconclusive [inhibitor, single point].
For Oc1ccc(/C=N/Nc2nc(-c3cccnc3)nc3ccccc23)c(O)c1, the Potency was active: 11.2 µM.
In the case of CC(C)(C)c1cnnn1-c1ccc(C(=O)CCl)cc1, the Potency is reported as inconclusive [inhibitor, single point].
With Cc1nc(Nc2ccc3c(c2)OCCO3)c2nnn(Cc3ccccc3Cl)c2n1 the Potency was active: 10 µM.
For S=C(NCc1ccco1)Nc1ccccc1Cl, the Potency was inconclusive [inhibitor, single point].
In the case of CCOC(=O)CCc1c(C)nc2cc(-c3ccc(F)cc3)[nH]n2c1=O, the Potency is reported as “inactive”.
In the case of Cc1ccc(N(Cc2ccccc2)C(=O)c2cc(S(=O)(=O)N3CCOCC3)ccc2F)cc1, the Potency is reported as “inactive”.
For Cc1c2n(c3ccccc13)CC/C2=N\O, the Potency was inconclusive [inhibitor, single point].
In the case of C=C1C(C(=O)Nc2ccc(OC)cc2)C1C(=O)Nc1ccc(OC)cc1 (stereo unspecified), the Potency is reported as inconclusive [inhibitor, partial curve, poor fit].
In the case of CCc1ccc(S(=O)(=O)Nc2c(C)nn(C)c2C)cc1, the Potency is reported as active: 12.6 µM.
In the case of CCOC(=O)c1ccc(NC(=O)CSc2nc3cccnc3n2C)cc1, the Potency is reported as inconclusive [inhibitor, partial curve].
For CC(C)c1ccc(CN2CCC(Oc3ccc(C(=O)N4CCCC4)cc3)CC2)cc1, the Potency was inconclusive [inhibitor, single point].
With O=C(O)C/C(=C\c1cc(Br)cs1)c1nc2ccccc2o1 the Potency was “inactive”.
For Cc1nn(-c2ccc(Cl)cc2)c(N)c1C(O)(CSc1nccn1C)C(F)(F)F (stereo unspecified), the Potency was “inactive”.
With CCc1nn(CC(=O)NCCc2ccc(Cl)cc2)c(=O)c2cccn12 the Potency was “inactive”.
With COc1ccccc1NS(=O)(=O)c1ccc2oc(SC)nc2c1 the Potency was inconclusive [inhibitor, partial curve, poor fit].
With CCn1c2c(c(=N)c3ccccc31)CCC2 the Potency was active: 8.91 µM.
In the case of COCCN(C(=O)COC(=O)c1c(NC(C)=O)sc(C)c1C)c1c(N)n(Cc2ccccc2)c(=O)[nH]c1=O, the Potency is reported as inconclusive [inhibitor, full curve, poor fit].
In the case of Cc1ccc(S(=O)(=O)N2CCOCC2)cc1C(=O)O, the Potency is reported as “inactive”.
For COc1ccc(-n2c(SCC(=O)Nc3ccccc3)nnc2-c2ccc(NS(=O)(=O)c3ccc(C)cc3)cc2)cc1, the Potency was inconclusive [inhibitor, single point].
In the case of O=C(O)c1cccc(NC(=O)c2cccc(NC(=O)C3CCCO3)c2)c1 (stereo unspecified), the Potency is reported as “inactive”.
For Cc1cccc(C(=O)OCC(=O)NC23CC4CC(CC(C4)C2)C3)c1O, the Potency was inconclusive [inhibitor, single point].
For Cc1ccc(C(=O)NC2CCN(C(=O)NC3CCCCC3)CC2)cc1, the Potency was inconclusive [inhibitor, single point].
For COc1ccc(CN2CCN(CCCc3ccccc3)C(CCO)C2)c(OC)c1 (stereo unspecified), the Potency was “inactive”.
For CCOc1ccc(S(=O)(=O)Nc2ccc(C(=O)NCCCN3CCOCC3)cc2)cc1, the Potency was inconclusive [inhibitor, single point].
